Laboratory results taken from PubChem BioAssay (NCATS).
Where “and” joins values, the source holds several entries; their conditions need not be identical. Identical values can stand only once. Inconclusive means that the source gave no clear call. Such entries were picked first, then a sample of the others. Where the call is inconclusive, the potency comes from a doubtful curve fit. A structure can be active in one record and inactive in another. Calls of active or inactive are those of the source. Calls come from the whole dose curve; as a rule, active = well fitted inhibition curve with a large enough effect; inconclusive = small, poorly fitted or top-dose-only effect; inactive = flat fitted curve, though single readings scatter.

Experiment: P-glycoprotein substrates identified in KB-8-5-11 adenocarcinoma cell line, qHTS therapeutic library screen (AID 1346987); note: nearly all actives have a fitted effect of over 65% in size
Details: KB-8-5-11 (P-gp overexpressing) viability, CellTiter-Glo, 72 h; series mostly up to 44.5 µM; activity change, negative = cytotoxicity: at the top concentration
In short: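 Steps: plate 500 KB-8-5-11 cells/well in DMEM + 10% FCS (colchicine removed); pin compounds in dose-response; incubate 72 h, 37 degree C, 5% CO2; add CellTiter-Glo, 5 min; read luminescence.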
% is set by controls: 0 for no effect and ±100 for the full control effect; potency is the fitted concentration of half-maximal effect; tags give direction and shape of the fitted curve.

SMILES	Potency	outcome	activity change, negative = cytotoxicity
COc1ccc(C(C)(C)C)cc1CN[C@H]1C2CCN(CC2)[C@H]1C(c1ccccc1)c1ccccc1	active: 18.4 µM		
COC1C(O)C(OC2CCC3(C=O)C(CCC4C3CCC3(C)C(C5=CC(=O)OC5)CCC43O)C2)OC(C)C1OC1OC(CO)C(O)C(O)C1O (centres undefined)	active: 0.432 µM		
CCN(CC)CCN1C(=O)CN=C(c2ccccc2F)c2cc(Cl)ccc21	inconclusive: 10.3 µM [inhibitor, partial curve]		
CC/C=C/C=C/C1(C)OC(OC)=C(C(=O)C2C(C)C(=O)c3cc(OC)c(O)c(O)c3C2(C)O)C1=O (centres undefined)	inconclusive: 7.96 µM [inhibitor, single point]		
CNC(=O)c1cc(C#N)cc(C)c1NC(=O)c1cc(Br)nn1-c1ncccc1Cl	inconclusive: 8.2 µM [inhibitor, partial curve]		
CCOC(=O)NC(C)(C)Cc1ccc(Cl)cc1		inactive	
O=C(N[C@@H]1N=C(c2ccccc2F)c2cccc3c2N(CC3)C1=O)c1cc2ccccc2[nH]1	inconclusive: 5.44 µM [inhibitor, partial curve]		
C[C@]12Cc3nonc3C[C@@H]1CC[C@@H]1[C@@H]2CC[C@@]2(C)[C@H]1CC[C@]2(C)O	active: 5.8 µM		
CC[C@@H]1/C=C/C=C/C[C@H](C)C(O)[C@](C)(O)C(=O)[C@H](C)C(O)[C@H](C)C(=O)[C@H](C)[C@@H](O)[C@H](C)/C=C/C(=O)O[C@H]2[C@@H](C)[C@@H](CC1)O[C@]1(O[C@H](C[C@H](C)O)[C@H](C)CC1=O)[C@@H]2C (some centres undefined)	inconclusive: 0.276 µM [inhibitor, full curve]		
CCC(COC(=O)c1cc(OC)c(OC)c(OC)c1)(c1ccccc1)N(C)C (centres undefined)	inconclusive: 16.4 µM [inhibitor, partial curve]		
CCCSc1cc(OC)c(CCN)cc1OC	active: 20 µM		
C[N+](C)(C)CC(=O)O	inactive		
Nc1nc(N)nc(NC2CC2)n1			inactive: -11%
CN1C[C@H](C(=O)N[C@]2(C)O[C@@]3(O)[C@@H]4CCCN4C(=O)[C@H](Cc4ccccc4)N3C2=O)C=C2c3cccc4[nH]cc(c34)C[C@H]21	inconclusive: 23.1 µM [inhibitor, single point]		
CCC(=O)O[C@](Cc1ccccc1)(c1ccccc1)[C@H](C)CN(C)C	active: 20 µM		
CC1=CC(=O)[C@@H](O)[C@]2(C)C3[C@@H](O)[C@@H]4OC(=O)[C@@H]([C@H]4C)[C@]3(C)C(=O)[C@H](O)[C@@H]12 (some centres undefined)	inconclusive: 11.4 µM [inhibitor, single point]		
C[C@]12C=CC(=O)C=C1CC[C@@H]1[C@@H]2CC[C@@]2(C)[C@H]1CC[C@]2(C)O	inconclusive: 25.9 µM [inhibitor, single point]		
C=CCN1CC[C@]23c4c5ccc(O)c4O[C@H]2C(=O)CC[C@@]3(O)[C@H]1C5	inconclusive: 23.1 µM [inhibitor, single point]		
CCCN(CCC)CCc1c[nH]c2ccccc12	inconclusive: 39.8 µM [inhibitor, single point]		
C[C@]12CC[C@H]3[C@@H](CCC4=CC(=O)CC[C@@H]43)[C@@H]1CC[C@@H]2O	active: 2.91 µM and active: 5.8 µM		

SMILES	Potency	outcome	activity change, negative = cytotoxicity
C=C1[C@@H](C)[C@H]2[C@H](Cc3ccccc3)NC(=O)[C@]23[C@H](OC(C)=O)/C=C/[C@](C)(O)C(=O)[C@@H](C)C/C=C/[C@H]3[C@@H]1O	active: 9.2 µM		
O=C(N1CCCCC1Cc1ccccc1)n1cc(-c2ccc(-c3ccccc3)cc2)nn1 (centres undefined)	inconclusive: 20.6 µM [inhibitor, partial curve, poor fit]		
Oc1ccc2c(c1)C13CCCC[C@H]1[C@@H](C2)N(CC1CCC1)CC3	inconclusive: 6.51 µM [inhibitor, partial curve]		
COc1ccc(C(c2ccc(OC)cc2)C(Cl)(Cl)Cl)cc1	inconclusive: 31.6 µM [inhibitor, single point]		
C[C@]12CC[C@@H](O)C[C@@H]1CC[C@@H]1[C@@H]2CC[C@]2(C)C(=O)[C@@H](Br)C[C@@H]12	inconclusive: 10.3 µM [inhibitor, partial curve, poor fit]		
CCC/C=C/C=C/C(=O)O[C@H]1/C(=C/C(=O)OC)C[C@H]2C[C@H]([C@@H](C)O)OC(=O)C[C@H](O)C[C@@H]3C[C@H](OC(C)=O)C(C)(C)[C@](O)(C[C@@H]4C/C(=C/C(=O)OC)C[C@H](/C=C/C(C)(C)[C@]1(O)O2)O4)O3			inactive: -3.26%
CN1C[C@@H](NS(=O)(=O)N(C)C)C[C@@H]2c3cccc4c3c(cn4C)C[C@H]21	inconclusive: 11.6 µM [inhibitor, partial curve]		
CCC1(O)CCC2C3CCC4=CC(=O)CCC4C3CCC21CC (centres undefined)	inconclusive: 18.4 µM [inhibitor, single point]		
CN(C)CCc1c[nH]c2cccc(OP(=O)(O)O)c12	inconclusive: 63.1 µM [inhibitor, single point]		
C[C@@H]1CC[C@H]2[C@@H](C)C(=O)O[C@@H]3O[C@@]4(C)CC[C@@H]1[C@]32OO4	inconclusive: 23.1 µM [inhibitor, single point]		
CN1C(=O)C(Cc2ccc3ccccc3c2)N=C(c2ccc(O)cc2)c2cc(Cl)ccc21 (centres undefined)	inconclusive: 29.1 µM [inhibitor, single point]		
Cc1sc2c(c1C)C(c1ccc(Cl)cc1)=N[C@@H](CC(=O)Nc1ccc(O)cc1)c1nnc(C)n1-2	inconclusive: 3.48 µM [inhibitor, single point]		
C=C1[C@@H](O)[C@]2(O)OC[C@]34C2[C@]2(C)C(C[C@H]3OC(=O)[C@H](O)[C@@]14O)C(C)=CC(=O)[C@H]2O (some centres undefined)			inactive: -16.1% [at 17.3 µM]
O=C(O)COc1nc(Cl)c(Cl)cc1Cl			inactive: -2.84% [at 93.4 µM]
CC12Cc3cn[nH]c3C=C1CCC1C2CCC2(C)C1CCC2(C)O (centres undefined)	inconclusive: 18.4 µM [inhibitor, single point]		
CCC1CN2CCC3(C(=O)Nc4cccc(O)c43)C2CC1/C(=C/OC)C(=O)OC (centres undefined)			inactive: -25.6% [at 17.3 µM]
CCC(C)C1NC(=O)C(C(C)=O)=C1O (centres undefined)	inconclusive: 47.3 µM [inhibitor, single point]		
CC(=O)C1CCC2C3CCC4C[C@@H](O)CCC4(C)C3CCC12C (some centres undefined)	inconclusive: 18.4 µM [inhibitor, single point]		
COc1ccc(Cc2nccc3cc(OC)c(OC)cc23)cc1OC	active: 880 nM and inactive		
